# Assay results published in the supplement of paper PMC8728848.
# This is one part of the list.
# B1: PX9961A-pdi-456-24-456 (Parabacteroides distasonis) (protein)
# chain: KTSSTQLPTIDAISSVADLTNAVNGVYEQQATEVGSYGAEFTLLADLRSGDFQSISTVNHAGPMYRYQTGKNDEMVYSFYKLFYNSLARLNNVLAAAENLEGADVDILKGELYAMRALYHFDLARVFAKLPSTTDMNDLGIVLSTEVYPTDYIGTRATLQQTYDQILKDIETALPLLSKDKQTGHINYWGALAIRARAYLYLEKNKEALADCKEIIASSPYKLYTRDEYIGAWDKEGTNEAIFEILVTPNYNAQRNSIGYFTHASGYGECAATESFLEELAKHPGDIRTELFAKETDNGYDGTYPQKYKGRDGQIYVNNPKVVRLSEVYLIAAEAALKAGDTSAAAGYMNTLRKNRIENYTDVASITLDDILLERRLELFTEGHTAWDAWRNGKSVNNKFVGEVKPGDYRTIMAIPIGEITVSRGQLIQNPGY
# Assays:
# Assay in all cases: glycan array binding signal (z-score within array); higher = stronger binding
# Conditions in all cases: glycan notation: IUPAC condensed, linker removed
# [1] = target: Neu5Ac(a2-6)Gal(b1-4)GlcNAc(b1-2)Man(a1-3)[Man(a1-6)]Man(b1-4)GlcNAc(b1-4)GlcNAc
# Method in brief: (§1)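 Glycan array data came from 3228 arrays in the Consortium for Functional Glycomics database, and only arrays with an available protein sequence were kept. Glycan names were put into IUPAC-condensed notation, and columns mapping to the same glycan were averaged. The binding signal is a within-array Z-score, averaged across arrays of one protein sequence run at different concentrations or buffers and across linkers. A negative Z-score can be read as non-binding.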
# [2] = target: Neu5Ac(a2-6)Gal(b1-4)GlcNAc(b1-2)Man(a1-3)[Neu5Ac(a2-3)Gal(b1-4)GlcNAc(b1-2)Man(a1-6)]Man(b1-4)GlcNAc(b1-4)GlcNAc
# Method in brief: as §1
# [3] = target: Neu5Ac(a2-6)Gal(b1-4)GlcNAc(b1-2)Man(a1-3)[Neu5Ac(a2-6)Gal(b1-4)GlcNAc(b1-2)Man(a1-6)]Man(b1-4)GlcNAc(b1-4)GlcNAc
# Method in brief: as §1
# [4] = target: Neu5Ac(a2-6)Gal(b1-4)GlcNAc(b1-2)Man(a1-3)[Neu5Ac(a2-6)Gal(b1-4)GlcNAc(b1-2)Man(a1-6)]Man(b1-4)GlcNAc(b1-4)[Fuc(a1-6)]GlcNAc
# Method in brief: as §1
# [5] = target: Neu5Ac(a2-6)Gal(b1-4)GlcNAc(b1-2)Man(a1-6)Man(b1-4)GlcNAc(b1-4)GlcNAc
# Method in brief: as §1
# [6] = target: Neu5Ac(a2-6)Gal(b1-4)GlcNAc(b1-2)Man(a1-6)[Gal(b1-4)GlcNAc(b1-2)Man(a1-3)]Man(b1-4)GlcNAc(b1-4)GlcNAc
# Method in brief: as §1
# [7] = target: Neu5Ac(a2-6)Gal(b1-4)GlcNAc(b1-2)Man(a1-6)[GlcNAc(b1-2)Man(a1-3)]Man(b1-4)GlcNAc(b1-4)GlcNAc
# Method in brief: as §1
# [8] = target: Neu5Ac(a2-6)Gal(b1-4)GlcNAc(b1-2)Man(a1-6)[Man(a1-3)]Man(b1-4)GlcNAc(b1-4)GlcNAc
# Method in brief: as §1
# [9] = target: Neu5Ac(a2-6)Gal(b1-4)GlcNAc(b1-2)[Neu5Ac(a2-6)Gal(b1-4)GlcNAc(b1-4)]Man(a1-3)[GlcNAc(b1-4)][Neu5Ac(a2-6)Gal(b1-4)GlcNAc(b1-2)[Neu5Ac(a2-6)Gal(b1-4)GlcNAc(b1-6)]Man(a1-6)]Man(b1-4)GlcNAc(b1-4)GlcNAc
# Method in brief: as §1
# [10] = target: Neu5Ac(a2-6)Gal(b1-4)GlcNAc(b1-2)[Neu5Ac(a2-6)Gal(b1-4)GlcNAc(b1-4)]Man(a1-3)[GlcNAc(b1-4)][Neu5Ac(a2-6)Gal(b1-4)GlcNAc(b1-4)Man(a1-6)]Man(b1-4)GlcNAc(b1-4)GlcNAc
# Method in brief: as §1
# [11] = target: Neu5Ac(a2-6)Gal(b1-4)GlcNAc(b1-2)[Neu5Ac(a2-6)Gal(b1-4)GlcNAc(b1-6)]Man(a1-6)[Neu5Ac(a2-6)Gal(b1-4)GlcNAc(b1-2)Man(a1-3)][GlcNAc(b1-4)]Man(b1-4)GlcNAc(b1-4)GlcNAc
# Method in brief: as §1
# [12] = target: Neu5Ac(a2-6)Gal(b1-4)GlcNAc(b1-3)Gal(b1-3)GlcNAc
# Method in brief: as §1
# [13] = target: Neu5Ac(a2-6)Gal(b1-4)GlcNAc(b1-3)Gal(b1-4)GlcNAc
# Method in brief: as §1
# [14] = target: Neu5Ac(a2-6)Gal(b1-4)GlcNAc(b1-3)Gal(b1-4)GlcNAc(b1-2)Man(a1-3)[Neu5Ac(a2-6)Gal(b1-4)GlcNAc(b1-3)Gal(b1-4)GlcNAc(b1-2)Man(a1-6)]GalNAc
# Method in brief: as §1
# [15] = target: Neu5Ac(a2-6)Gal(b1-4)GlcNAc(b1-3)Gal(b1-4)GlcNAc(b1-3)Gal(b1-4)GlcNAc
# Method in brief: as §1
# [16] = target: Neu5Ac(a2-6)Gal(b1-4)GlcNAc(b1-3)Gal(b1-4)GlcNAc(b1-3)Gal(b1-4)GlcNAc(b1-2)Man(a1-3)[Neu5Ac(a2-6)Gal(b1-4)GlcNAc(b1-3)Gal(b1-4)GlcNAc(b1-3)Gal(b1-4)GlcNAc(b1-2)Man(a1-6)]GalNAc
# Method in brief: as §1
# [17] = target: Neu5Ac(a2-6)Gal(b1-4)GlcNAc(b1-3)Gal(b1-4)GlcNAc(b1-3)GalNAc
# Method in brief: as §1
# [18] = target: Neu5Ac(a2-6)Gal(b1-4)GlcNAc(b1-3)Gal(b1-4)GlcNAc(b1-3)[Neu5Ac(a2-6)Gal(b1-4)GlcNAc(b1-3)Gal(b1-4)GlcNAc(b1-6)]GalNAc
# Method in brief: as §1
# [19] = target: Neu5Ac(a2-6)Gal(b1-4)GlcNAc(b1-3)Gal(b1-4)GlcNAc(b1-6)[Gal(b1-3)]GalNAc
# Method in brief: as §1
# [20] = target: Neu5Ac(a2-6)Gal(b1-4)GlcNAc(b1-3)Gal(b1-4)[Fuc(a1-3)]GlcNAc(b1-3)Gal(b1-4)[Fuc(a1-3)]GlcNAc
# Method in brief: as §1
# [21] = target: Neu5Ac(a2-6)Gal(b1-4)GlcNAc(b1-3)GalNAc
# Method in brief: as §1
# [22] = target: Neu5Ac(a2-6)Gal(b1-4)GlcNAc(b1-3)[Neu5Ac(a2-6)Gal(b1-4)GlcNAc(b1-6)]GalNAc
# Method in brief: as §1
# [23] = target: Neu5Ac(a2-6)Gal(b1-4)GlcNAc(b1-6)GalNAc
# Method in brief: as §1
# [24] = target: Neu5Ac(a2-6)Gal(b1-4)GlcNAc(b1-6)[Gal(b1-3)GlcNAc(b1-3)]Gal(b1-4)Glc
# Method in brief: as §1
# [25] = target: Neu5Ac(a2-6)Gal(b1-4)GlcNAc(b1-6)[Gal(b1-3)]GalNAc
# Method in brief: as §1
# [26] = target: Neu5Ac(a2-6)Gal(b1-4)GlcNAc6S
# Method in brief: as §1
# Neu5Ac(a2-6)GalNAc = target: Neu5Ac(a2-6)GalNAc
# Method in brief: as §1
# [27] = target: Neu5Ac(a2-6)GalNAc(b1-4)GlcNAc
# Method in brief: as §1
# [28] = target: Neu5Ac(a2-6)GalNAc(b1-4)GlcNAc6S
# Method in brief: as §1
# [29] = target: Neu5Ac(a2-6)GlcNAc(b1-4)GlcNAc
# Method in brief: as §1
# [30] = target: Neu5Ac(a2-6)GlcNAc(b1-4)GlcNAc(b1-4)GlcNAc
# Method in brief: as §1
binder,measurement,setting,value
B1,glycan array binding signal (z-score),[1],-0.58
same,glycan array binding signal (z-score),[2],-0.397
same,glycan array binding signal (z-score),[3],-0.198
same,glycan array binding signal (z-score),[4],0.763
same,glycan array binding signal (z-score),[5],-0.434
same,glycan array binding signal (z-score),[6],-0.101
same,glycan array binding signal (z-score),[7],-0.653
same,glycan array binding signal (z-score),[8],-0.241
same,glycan array binding signal (z-score),[9],0.806
same,glycan array binding signal (z-score),[10],-0.061
same,glycan array binding signal (z-score),[11],-0.07
same,glycan array binding signal (z-score),[12],-0.085
same,glycan array binding signal (z-score),[13],-0.41
same,glycan array binding signal (z-score),[14],-0.415
same,glycan array binding signal (z-score),[15],-0.16
same,glycan array binding signal (z-score),[16],0.269
same,glycan array binding signal (z-score),[17],-0.552
same,glycan array binding signal (z-score),[18],-0.346
same,glycan array binding signal (z-score),[19],-0.172
same,glycan array binding signal (z-score),[20],-0.091
same,glycan array binding signal (z-score),[21],0.125
same,glycan array binding signal (z-score),[22],-0.049
same,glycan array binding signal (z-score),[23],0.035
same,glycan array binding signal (z-score),[24],-0.26
same,glycan array binding signal (z-score),[25],-0.445
same,glycan array binding signal (z-score),[26],0.35
same,glycan array binding signal (z-score),Neu5Ac(a2-6)GalNAc,-0.274
same,glycan array binding signal (z-score),[27],-0.529
same,glycan array binding signal (z-score),[28],-0.348
same,glycan array binding signal (z-score),[29],-0.484
same,glycan array binding signal (z-score),[30],0.275
